Experimental data: the supplement of paper PMC11417369
Some of the results follow.

What follows are sequences tested on PF3D7_0420300 AP2 domain 1 (GST-tagged) (assay: gcPBM binding intensity (ln(normalized median fluorescence intensity)); higher = stronger DNA binding).
Outline: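 DNA-binding domains from P. falciparum, fused to GST and produced in E. coli, were put on an Agilent 4 × 180k double-stranded probe array for 1 h in 1× PBS holding 1% milk, 0.2 mg/ml BSA, 0.5% salmon testes DNA and 0.03% Triton X-100. Probes were primer-extended, 36 bp long and drawn from intergenic genomic regions, with negative controls included. After Alexa488 anti-GST antibody detection and a 488 nm scan, binding intensity was set as the highest Masliner-normalised natural-log median intensity across replicate spots of either probe orientation.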
“ATTTATATATAATTTTGTACGAAAAAAATAAGGTAT [XGTACX_site3578]” was tested, and the “gcPBM binding intensity (ln)” value was 9.31. With “TATATATTTATTAAATGTACATAACAAAAATGGTAT [XGTACX_site3577]” the “gcPBM binding intensity (ln)” value was 9.32. “AAATAAAGTAAAATATGTACATAAATTAAAACACAT [XGTACX_site8539]” was tested, and the “gcPBM binding intensity (ln)” value was 9.83. “TGCATACATAAATGTATATATTAATATATATCATAT [GTGCAC_negctrl_site252]” was tested, and the “gcPBM binding intensity (ln)” value was 9.2. For “AAAAAAAACGAACACACACACATACAAAATCTATAT [CACACA_site6795]”, the “gcPBM binding intensity (ln)” value was 10.1. With “TTAAAAGAATATAATGCACACATTATTTTATTTTAT [CACACA_site3772]” the “gcPBM binding intensity (ln)” value was 9.2. With “AATACATAATAACATGTACACACATTCTTCTATAAA [CACACA_site9344]” the “gcPBM binding intensity (ln)” value was 9.51. In the case of “TATACGAAATTGTGCACACATATATTTATGTATGTA [CACACA_site1509]”, the “gcPBM binding intensity (ln)” value is reported as 9.42. With “TACCCACGTATATATATACACACTAATATACACCCA [CACACA_site9381]” the “gcPBM binding intensity (ln)” value was 9.52. With “ATTTACATTCACTTATGTACTTATATAATTTTATTT [XGTACX_site8150]” the “gcPBM binding intensity (ln)” value was 9.54. “AATGTATAATTATAATGTACAAATAATATATAATAT [XGTACX_site5407]” was tested, and the “gcPBM binding intensity (ln)” value was 9.43. For “TAACTCCACAAATAATGTACATATATCACTATATTT [XGTACX_site4911]”, the “gcPBM binding intensity (ln)” value was 9.22. With “TACATATGAAAATACACACATACATACATATATATA [CACACA_site1673]” the “gcPBM binding intensity (ln)” value was 9.77. In the case of “TATATAATATATATTTTATATTTGTAATAATTTTTT [GTGCAC_negctrl_site497]”, the “gcPBM binding intensity (ln)” value is reported as 9.02. For “TATATTAAACATATATGTACATATTTTTTCTGAACA [XGTACX_site5390]”, the “gcPBM binding intensity (ln)” value was 9.08. “TATTGTTTTTTTGATTTTTTTTTTTTTTTTAATGAA [CACACA_negctrl_site824]” was tested, and the “gcPBM binding intensity (ln)” value was 9.3. “AATATCAATGATGTTACATGCAAGAGAATCCACAAA [TGCATGCA_site678]” was tested, and the “gcPBM binding intensity (ln)” value was 9.24. “ACCAAATCATATATAGCACACAAATTCTTTATTATT [CACACA_site8911]” was tested, and the “gcPBM binding intensity (ln)” value was 9.4. For “AATATTTTCTGTAATACTTCTTTTCAATTTATTTCG [CACACA_negctrl_site1390]”, the “gcPBM binding intensity (ln)” value was 9.47. With “ACGTAAAATTATTATTGTACATGTAAATAATTTGGA [XGTACX_site8154]” the “gcPBM binding intensity (ln)” value was 9.23. In the case of “ATAGAAAGTGACAATTGTACATACATATTATATATA [XGTACX_site4390]”, the “gcPBM binding intensity (ln)” value is reported as 9.34. “TTCTTGGAATACAAGTGTACTTTATTATTATTATTA [XGTACX_site5997]” was tested, and the “gcPBM binding intensity (ln)” value was 9.25. “AAAAAAAAAAAAAAAAAAAAATTTCAATTATATTGA [GTGCAC_negctrl_site642]” was tested, and the “gcPBM binding intensity (ln)” value was 8.91. For “TTTTTTTTTGCCTACTGTACTATTTTTGAGCTCACC [XGTACX_site7967]”, the “gcPBM binding intensity (ln)” value was 9.35. In the case of “AAAATTATAATATATACACACATATATATATTAAAT [CACACA_site473]”, the “gcPBM binding intensity (ln)” value is reported as 9.49. For “CAAAATATAGATGACACACACAAAAAAAGTATATTA [CACACA_site6848]”, the “gcPBM binding intensity (ln)” value was 9.92. For “AAGCTTCCTTAATATACACACATATCTGAGTATATT [CACACA_site5939]”, the “gcPBM binding intensity (ln)” value was 9.57. In the case of “AGATAAAAAAAGTACACACACACATATATATATATA [CACACA_site3072]”, the “gcPBM binding intensity (ln)” value is reported as 9.82. In the case of “CATTTACCCTTATTAACACACAAAATATAATACGCT [CACACA_site2565]”, the “gcPBM binding intensity (ln)” value is reported as 9.56. For “TTTTTTTTTTTTTGGTGTACCATAGGTAAAATGATT [XGTACX_site8020]”, the “gcPBM binding intensity (ln)” value was 8.91. “ATTTATGGAAAAAGAACACACAATCAAACAAAAATA [CACACA_site3707]” was tested, and the “gcPBM binding intensity (ln)” value was 9.71. “ATATAAATGAATATATGTACATATATATATATATAT [XGTACX_site6361]” was tested, and the “gcPBM binding intensity (ln)” value was 9.11. For “TGACCTGTTCAGGTAACACACATATAAACCCATACA [CACACA_site31]”, the “gcPBM binding intensity (ln)” value was 9.54. For “ATGCTATAGGATCTTACACACATTTTTGTAAAAAAA [CACACA_site1868]”, the “gcPBM binding intensity (ln)” value was 9.41. With “AAAATCAAAAAAACAAGTACAAATGTGGACTTTTTT [XGTACX_site5363]” the “gcPBM binding intensity (ln)” value was 9.27. “TGTTCTATGGTTTGTAGTACTTTAATAAATATAAAT [XGTACX_site7823]” was tested, and the “gcPBM binding intensity (ln)” value was 9.2. “AATAAGCTCACGTGTCGTACATTTTTTAAAACAACC [XGTACX_site4707]” was tested, and the “gcPBM binding intensity (ln)” value was 9.3. “TCAAAAAAAAAAAAAAAAAAAAAAAAAAAAAAAAAA [CACACA_negctrl_site1753]” was tested, and the “gcPBM binding intensity (ln)” value was 8.47. With “TATATATATATATATGTGCACTGAAAGAATTATACA [GTGCAC_site9586]” the “gcPBM binding intensity (ln)” value was 9.29. For “GCTCAATTTTTGGGTACACACAAATGTATAAGAATA [CACACA_site7178]”, the “gcPBM binding intensity (ln)” value was 9.22. For “TTTTTCTAATTATGCACACATATCAAAATATTCAAT [CACACA_site2749]”, the “gcPBM binding intensity (ln)” value was 9.25. “ATATATATAGAAATATGTACGAAAAAAATATCACAT [XGTACX_site746]” was tested, and the “gcPBM binding intensity (ln)” value was 9.35. “TATTTATTTTATATATGTACATAATATATTCTTATA [XGTACX_site1619]” was tested, and the “gcPBM binding intensity (ln)” value was 9.17. “GGAATAGTGATATATACACACAAATACATATTTATA [CACACA_site6183]” was tested, and the “gcPBM binding intensity (ln)” value was 9.59. “AATTAATAAGAAAGGTGTACAGAAAAAAAAAAATAT [XGTACX_site2106]” was tested, and the “gcPBM binding intensity (ln)” value was 9.68.
